Laboratory results published in PubChem BioAssay AID651820 (National Center for Advancing Translational Sciences (NCATS), 2012).
The campaign covered roughly 340,000 compounds. About 12,000 (3.5%) were called active. Inconclusive results, whose numbers are uncertain, are shown with a selection of clear calls. The call rests on the fitted dose curve; in most records, active means well fitted inhibition curve with a large enough effect; inconclusive means small, poorly fitted or top-dose-only effect, or another doubt; inactive means no such curve, though single readings can be large or run the other way. No potency is given beside an inconclusive call; the fits are too rough.

Experiment: qHTS Assay for Inhibitors of Hepatitis C Virus (HCV)
Details: Huh7.5.1 HCVcc-Cre (HCVcc is cell-culture hepatitis C virus) infection, luciferase reporter, 44 h; activity change, negative = inhibition: at 41.8 µM (top of the series) unless noted
Summary of the method: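 HCVcc-Cre virus at an moi near 0.5 was added right after compound to cells cultured 4 h from seeding (1,000 cells/well). Luciferase activity was determined 44 h later, 15 min after substrate addition at RT.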
On the % scale 0 is the no-effect control and ±100 the full control effect; potency means the concentration at half of the fitted maximal effect; tags describe the fitted curve by direction and shape.

| Structure (SMILES) | Potency | activity change, negative = inhibition |
| --- | --- | --- |
| CCOc1ncccc1C(=O)Nc1ccc2nc(C)sc2c1 | inconclusive [inhibitor, partial curve] | – |
| Cc1ccc(NC(=O)OC(C)N2CCCCC2)cc1NC(=O)OC(C)N1CCCCC1 (stereo unspecified) | active: 25.1 µM | – |
| COC(=O)c1cc(=O)n(Cc2ccco2)c(=Nc2ccc(F)c(Cl)c2)s1 | inconclusive [inhibitor, single point] | – |
| Cc1ccc(C)c(NC(=O)CN(C)C(=O)c2cc(C3CC3)nn2-c2ccccc2)c1 | inconclusive [inhibitor, single point] | – |
| NC(=O)c1ccc(C2SCC(=O)N2Cc2ccccc2)cc1 (stereo unspecified) | – | inactive: 17% |
| CSc1ccccc1OCc1cc(C(=O)N(C)Cc2ccc(C)o2)no1 | – | inactive: -29.6% |
| COc1cc(C2NCC(c3ccc(Cl)cc3Cl)c3c2[nH]c2ccccc32)cc(OC)c1OC (stereo unspecified) | inconclusive [inhibitor, single point] | – |
| COc1ccc2nc(NC(=O)CCc3nc(C4=CCN(C)CC4)no3)sc2c1 | inconclusive [inhibitor, partial curve] | – |
| Cn1c(=O)n(C)c2cc([N+](=O)[O-])c(N3CCN(C(=O)C(C)(C)C)CC3)cc21 | – | inactive: -2.75% |
| COc1ccc(C(=O)N/N=C/c2ccc(OC)c(COc3c(F)c(F)cc(F)c3F)c2)cc1 | active: 2.24 µM | – |
| COc1ccc(-n2c(C)cc(C(=O)CSc3nnc(-c4cccs4)o3)c2C)cc1 | active: 11.2 µM | – |
| CCn1c2ccccc2c2cc(N)ccc21 | – | inactive: -20.5% |
| Cc1nnc(Nc2ccc(S(N)(=O)=O)cc2)c2ccccc12 | – | inactive: -0.13% |
| CC(C)c1ccc(NC(=O)C2CCCN2S(=O)(=O)c2ccccc2F)cc1 (stereo unspecified) | inconclusive [inhibitor, single point] | – |
| Cc1ccc(NC(=O)c2cnn(-c3ccccc3)c2C)cc1C | inconclusive [inhibitor, full curve] | – |
| COc1cccc(CC2(CO)CCN(CC3=CC[C@H]4C[C@@H]3C4(C)C)CC2)c1 | inconclusive [inhibitor, single point] | – |
| COc1ccc(OC)c(NC(=O)CC2SC(=NCc3ccccc3)NC2=O)c1 (stereo unspecified) | inconclusive [inhibitor, single point] | – |
| Cc1cc(C(=O)OCC(=O)Nc2ccc(F)cc2F)c(C)o1 | inconclusive [inhibitor, full curve, poor fit] | – |
| CC(NC(=O)COC(=O)/C(=C/c1cccs1)c1cccs1)c1ccccc1 (stereo unspecified) | inconclusive [inhibitor, single point] | – |
| NC(=O)c1ncn([C@@H]2O[C@H](CO)[C@@H](O)[C@H]2O)c1O | inconclusive [inhibitor, full curve, poor fit] | – |
| Cc1ccc2nc(-c3ccc(NC(=O)CN4CCN(c5ccccn5)CC4)cc3)sc2c1 | – | inactive: -52.5% |
| CCC(=O)Nc1ccc2c(c1)ncn2-c1ccccc1OC | – | inactive: 7.99% |

| Structure (SMILES) | Potency | activity change, negative = inhibition |
| --- | --- | --- |
| COc1ccc(-c2ncc(CN3CCC(CO)(Cc4cccc(OC)c4)CC3)cn2)cc1 | inconclusive [inhibitor, single point] | – |
| Cc1ccc(NC(=O)CN(C)C(=O)CNC(=O)c2cccs2)cc1 | inconclusive [inhibitor, single point] | – |
| C[C@@H]1CC[C@]2(C(=O)O[C@@H]3O[C@H](CO)[C@@H](O)[C@H](O)[C@H]3O)CC[C@]3(C)C(=CCC4[C@@]5(C)C[C@@H](O)[C@H](O)[C@@](C)(C(=O)O[C@@H]6[C@H](O)C[C@@]7(C)C(CC[C@]8(C)C7CC=C7[C@H]9[C@](C(=O)O[C@@H]%10O[C@H](CO)[C@@H](O)[C@H](O)[C@H]%10O)(CC[C@@H](C)[C@@]9(C)O)CC[C@]78C)[C@@]6(CO)C(=O)O)C5CC[C@]43C)[C@@H]2[C@]1(C)O (stereo partly specified) | inconclusive [inhibitor, single point] | – |
| Cc1ccc(NC(=O)CSC2=NN3CCCC(=O)N=C3S2)cc1Cl | inconclusive [inhibitor, single point] | – |
| Cc1ccc(S(=O)(=O)N/N=C/c2ccccc2O)cc1[N+](=O)[O-] | – | inactive: 4.4% |
| C/C(=N\NC(=O)c1ccc(Cn2cc([N+](=O)[O-])cn2)o1)c1cccc(NC(=O)C(C)C)c1 | inconclusive [inhibitor, full curve] | – |
| CCOC(=O)c1cccc(NC(=O)CSc2nc3cccnc3n2C)c1 | inconclusive [inhibitor, single point] | – |
| CCOC(=O)C(=CNc1nc2ccc(C(=O)OCC)cc2s1)C(=O)OCC | inconclusive [inhibitor, single point] | – |
| Cn1cnc([N+](=O)[O-])c1Sc1nc(N)nc2c1ncn2C1CC(O)C(CO)O1 (stereo unspecified) | inconclusive [inhibitor, single point] | – |
| Cc1ccc(C2=CC(c3cccs3)n3nnnc3N2)cc1 (stereo unspecified) | – | inactive: 13.9% |
| CCC(=O)[C@@]1(C)[C@H](C)C[C@H]2[C@@H]3CCC4=CC(=O)C=C[C@]4(C)[C@H]3[C@@H](O)C[C@@]21C | – | inactive: 11.1% |
| Cc1nn(C)cc1CN(C)Cc1ccc(OCC(O)CN2CCCCC2)cc1 (stereo unspecified) | inconclusive [inhibitor, single point] | – |
| Cc1ccc(C(=O)C=CNNC(=O)c2ccccc2)cc1 | inconclusive [inhibitor, partial curve] | – |
| O=C(CSc1nc(-c2ccccc2)cs1)Nc1cccc([N+](=O)[O-])c1 | active: 11.2 µM | – |
| C=CCSc1nnc2c(n1)-c1cccc3cccc-2c13 | inconclusive [inhibitor, single point] | – |
| CCOc1ccc(N(CCC#N)S(=O)(=O)c2ccc(OC)cc2)cc1 | inconclusive [inhibitor, full curve] | – |
| Cc1nn(Cc2ccccc2)c(C)c1NC(=O)CSc1nc2sc3c(c2c(=O)n1C)CCC3 | active: 22.4 µM | – |
| Cc1cc(N2CCN(C)CC2)nc2ccc(NC(=S)N3CCCCCC3)cc12 | inconclusive [inhibitor, full curve, poor fit] | – |
| CCOc1ccc(NC(=O)c2ccco2)cc1S(=O)(=O)N1CCCC1 | – | inactive: 1.17% |
| Nc1ccc(-c2nc3ccc(N)cc3o2)cc1 | – | inactive: -29.5% |
| NC(=S)n1[nH]c(-c2ccc([N+](=O)[O-])cc2)c(N=Nc2cccc([N+](=O)[O-])c2)c1=O | active: 10 µM | – |
| Cc1cc(C(C)(C)C)cc(C)c1C[n+]1ccc2ccccc2c1 | inconclusive [inhibitor, partial curve] | – |

| Structure (SMILES) | Potency | activity change, negative = inhibition |
| --- | --- | --- |
| CCn1c(SC(C)C)nnc1-c1c[nH]c2ccccc12 | inconclusive [inhibitor, single point] | – |
| COC(=O)Nc1ccc(C)c(NC(=O)OC)c1 | – | inactive: 23.8% |
| COc1ccc2c(c1)c(C(=O)N/N=C/c1ccc(Br)cc1)c(C)n2C | inconclusive [inhibitor, partial curve, poor fit] | – |
| O=C1CCC(C(=O)OCC(=O)N2N=C3/C(=C\c4ccccc4)CCCC3C2c2ccccc2)N1 (stereo unspecified) | inconclusive [inhibitor, single point] | – |
| CC(C)c1ccc(NC(=O)CCNS(=O)(=O)c2cccc3nonc23)cc1 | inconclusive [inhibitor, single point] | – |
| COC(=O)CC/C(O)=C1\C(=O)CC(C)(C)CC1=Nc1ccccc1OC | inconclusive [inhibitor, single point] | – |
| CC(C)N(Cc1ccccc1)C(=O)COC(=O)c1cnc(Cl)c(Cl)c1 | inconclusive [inhibitor, single point] | – |
| O=C(Nc1cccc(Cl)c1)N(CCN1CCOCC1)Cc1cccc(Cl)c1 | inconclusive [inhibitor, single point] | – |
| CCOc1ccc(OCc2cccc(C(=O)Nc3ccc(CN4CCCCC4)cc3)c2)cc1 | inconclusive [inhibitor, single point] | – |
| Cc1ccc(S(=O)(=O)c2c(C(=O)c3ccccc3)cnc3cc4c(cc23)OCCO4)cc1 | – | inactive: -3.23% |
| Cc1cc(C)n(CCCNC(=O)C2CC(=O)N(Cc3ccccc3)C2)n1 (stereo unspecified) | inconclusive [inhibitor, partial curve] | – |
| COc1ccc(OC)c(/C=C/C(=O)OCC(=O)N2CCCC2)c1 | inconclusive [inhibitor, single point] | – |
| O=C(Nc1cccc(-c2csc(Nc3ccccc3)n2)c1)c1ccccc1 | inconclusive [inhibitor, partial curve] | – |
| COC(=O)c1c(NC(=O)CN2C(=O)NC(CCc3ccccc3)C2=O)sc2c1CCCCC2 (stereo unspecified) | inconclusive [inhibitor, full curve, poor fit] | – |
| CC(=O)N1N=C(c2ccc3nccnc3c2)CC1c1ccccc1 (stereo unspecified) | – | inactive: 11.1% |
| Cn1cccc1/C=N/NC(=O)c1cccnc1 | – | inactive: 17% |
| COc1ccccc1C1OC2=C(Nc3ccc([N+](=O)[O-])cc3N2)C1=O (stereo unspecified) | inconclusive [inhibitor, partial curve] | – |
| COC(=O)c1c(NC(=O)CCCC(=O)O)sc(C)c1C | – | inactive: -5.1% |
| CCCCNc1nc(NC)nc(Cl)c1SC | – | inactive: -0.82% |
| CC/C(=N\O)c1ccc(OC)c(OC)c1 | inconclusive [inhibitor, full curve, poor fit] | – |
| CSc1ccc(C2=CC(=O)C[C@H](c3ccc(F)cc3)C2)cc1 | inconclusive [inhibitor, single point] | – |
| CCOC(=O)c1sc(NC(=O)CCCCCN2C(=O)c3cccc4cccc(c34)C2=O)nc1C | inconclusive [inhibitor, partial curve] | – |
